78 molecules from the supplement of paper PMC10600219 can be followed below.

Values joined by “and” are separate entries in the source; they are usually repeats but may differ in a detail not shown here. Identical values can stand only once. Counter-ions that a name gives are not always drawn. The full ranking holds about 2,800 compounds; the median of “cell viability relative to vehicle” is about 1.1, and the lowest 2% start at about 0.19. The list shows a part of the results.

The assay has as its system NCI-H2228 parental. Description: cell viability relative to vehicle (fraction of vehicle); NCI-H2228 is an ALK-positive lung cancer line and DTP means drug-tolerant persister; higher = less growth inhibition. The conditions noted are these: 100 nM; treatment time 6 days. The method in brief: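 Each value is viability relative to vehicle-treated cells, measured as ATP with the CellTiter-Glo 3D Cell Viability Assay. Parental NCI-H2228 cells and drug-tolerant persisters (1000 nM targeted drug, 13 days) in 384-well plates received the 3114-agent TargetMol anti-cancer compound library at 100 nM, or DMSO, and were read 6 days later.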
Regarding `OCc1ccc(-c2nn(Cc3ccccc3)c3ccccc23)o1` [Lificiguat], the cell viability is 0.894.
On to `NC(=O)c1cccnc1` [Nicotinamide], for which the cell viability was found to be 1.23.
Regarding `CNC1(C)C2CCC(C2)C1(C)C` (stereo not drawn) [Mecamylamine hydrochloride], the cell viability came out at 1.12.
As to `Cc1c(Cn2c(C)nc3c(C(=O)O)cc(N4CCOCC4)cc32)cccc1C(F)(F)F`, the cell viability came to 1.09.
For `O=C(NCc1ccc(Oc2ccccc2)cc1)c1nc(-c2cc(Br)c(O)c(Br)c2)no1`, the cell viability worked out at 0.915.
For the molecule `Nc1cc(F)ccc1NC(=O)c1ccc(CNC(=O)/C=C/c2cccnc2)cc1` [Chidamide], the cell viability is 0.862.
`Cc1c(CC(=O)O)c2cccnc2n1Cc1ccc(S(C)(=O)=O)cc1C(F)(F)F` [Fevipiprant]: the cell viability was determined as 1.14.
For the molecule `Cc1[nH]c(/C=C2\C(=O)Nc3ccc(S(=O)(=O)Cc4c(Cl)cccc4Cl)cc32)c(C)c1C(=O)N1CCC[C@@H]1CN1CCCC1`, the cell viability was 1.11.
Turning to `N#CC(=C(/N)Sc1ccccc1N)/C(C#N)=C(\N)Sc1ccccc1N`, the cell viability amounted to 1.05.
Turning to `CC1=C(C(=O)O)N2C(=O)[C@@H](NC(=O)[C@H](N)c3ccc(O)cc3)[C@H]2SC1` [Cefadroxil], the cell viability was determined as 1.13.
In the case of `Nc1nc(Nc2ccc(S(N)(=O)=O)cc2)nn1C(=O)c1c(F)cccc1F`, the cell viability stood at 1.03.
On to `CO[C@@H](C)Cn1c(=O)n(C)c2cnc3ccc(-c4cncc(C(C)(C)O)c4)cc3c21`, for which the cell viability turned out to be 0.412.
Turning to `CC(C)c1onc(-c2c(Cl)cccc2Cl)c1COc1ccc(/C=C/c2cccc(C(=O)O)c2)c(Cl)c1`, the cell viability is 1.03.
`Cc1ccc(C)c(OCCn2cc(C(=O)O)c3ccccc32)c1`: the cell viability was 0.92.
Turning to `C=CCN1CCCC1CNC(=O)c1cc2nn[nH]c2cc1OC` (stereo not drawn) [Alizapride hydrochloride], the cell viability was 1.22.
With `COc1ccc(Br)cc1NC(=O)Nc1cccc2c1ccn2Cc1ccnc(N)c1`, the cell viability was determined as 1.12.
As to `CC(C)C[C@H](NC(=O)c1cc2ccccc2s1)C(=O)N1CCN(C(=O)[C@H](CO)NS(=O)(=O)c2ccc(Cl)cc2Cl)CC1`, the cell viability was 1.04.
`CC(C)(Oc1ccc(C2CC2(Cl)Cl)cc1)C(=O)O` (stereo not drawn) [Ciprofibrate]: the cell viability came out at 1.11.
`c1ccc2c(-c3cnn4cc(-c5ccc(N6CCNCC6)cc5)cnc34)ccnc2c1`: the cell viability was 1.07 and 1.13.
With `O=C(CCN1CCN(C(=O)OCc2cc(Cl)cc(Cl)c2)CC1)c1ccc2[nH]c(=O)oc2c1`, the cell viability turned out to be 1.09.
As for `COc1ccc(-c2oc3c(CC=C(C)C)c(O)cc(O)c3c(=O)c2O)cc1` [Icaritin], the figure is 1.1; as for `CCOc1nc2cccc(C(=O)OC(C)OC(=O)OC3CCCCC3)c2n1Cc1ccc(-c2ccccc2-c2nn[nH]n2)cc1` (stereo not drawn) [Candesartan Cilexetil], 1.03; as for `COc1c(O)cc(O)c2c(=O)cc(-c3ccccc3)oc12` [Wogonin], 1.1.
`Cc1ccc(NC(=S)NNc2c([N+](=O)[O-])cc(C(F)(F)F)cc2[N+](=O)[O-])cc1Cl`: the cell viability came to 1.09.
On to `O=C(COCC(=O)N1CCN(C(c2ccccc2)c2ccccc2)CC1)Nc1ccc(Cl)cc1C(=O)O` [TM5275 sodium], for which the cell viability amounted to 0.996.
In the case of `Nc1ccc(S(N)(=O)=O)cc1` [Sulfanilamide], the cell viability was 1.19.
With `COc1cc2ncnc(Nc3ccc(Oc4ccccc4)cc3)c2cc1OC` [Src Inhibitor 1], the cell viability was found to be 1.1.
For the molecule `CC(C)=C1CC[C@@H](C)CC1=O` [Pulegone], the cell viability is 1.03.
For the molecule `O=C(O)/C=C/c1ccccc1` [Cinnamic acid], the cell viability turned out to be 1.23.
As for `CCCOc1ccc(CCc2nc3cc(-c4c(C)noc4C)ccc3n2CCN2CCOCC2)cc1` [PF-CBP1 hydrochloride], the cell viability came to 1.06.
The result for `Oc1ccc(-c2cc(=S)ss2)cc1` [Desmethylanethol trithione] reads 1.03.
Consider `CC(C)(C)C#Cc1cc(N(C(=O)[C@H]2CC[C@H](C)CC2)[C@H]2CC[C@H](O)CC2)c(C(=O)O)s1` [Lomibuvir], for which the cell viability is 1.18.
For the molecule `CCOC(=O)c1ccc(C#Cc2ccc3c(c2)C(C)(C)CCS3)nc1` [Tazarotene], the cell viability was determined as 0.702.
As to `Cn1c(=O)c(F)c(Nc2ccc(I)cc2F)c2c(=O)n(C[C@@H](O)CO)cnc21`, the cell viability came out at 0.818.
Regarding `COc1ccc(/C=C/C(=O)C2(C(=O)/C=C/c3ccc(OC)c(OC)c3)CCCCC2)cc1OC`, the cell viability was 1.18.
For `NCCNc1ccc(NCCN)c2c1C(=O)c1ccncc1C2=O` [Pixantrone dimaleate], the cell viability was 0.405.
As to `COC(=O)c1c2c(c3ccccc3c1O)OC(C)(C)C=C2` [Mollugin], the cell viability was 1.07.
In the case of `COc1ccc(-c2cc3c(C)nc(N)nc3n([C@H]3CC[C@H](OCCO)CC3)c2=O)cn1`, the cell viability is 0.485.
As for `O=c1[nH]c(=O)n([C@H]2C[C@H](O)[C@@H](CO)O2)cc1/C=C/Br` [Brivudine], the figure is 1.05; as for `CC(=O)OC(C)C[N+](C)(C)C` (stereo not drawn) [Methacholine Chloride], 1.05; as for `CCCCOc1ccc(CC(=O)NO)cc1` [Bufexamac], 1.15.
`C=CCc1ccccc1OCC(O)CNC(C)C` (stereo not drawn) [Alprenolol]: the cell viability was determined as 0.844.
Take `Oc1c(Cl)cc(Cl)cc1Sc1cc(Cl)cc(Cl)c1O` [Bithionol]: the cell viability came to 1.18.
Regarding `Cc1ccc(O)c([C@H](CCN(C(C)C)C(C)C)c2ccccc2)c1` [Tolterodine tartrate], the cell viability stood at 1.19.
As for `Cc1cc(C)cc(NC(=O)Cc2ccc(OC(C)(C)C(=O)O)cc2)c1` [Efaproxiral Sodium], the cell viability was 0.973.
Regarding `CCN1/C(=C/C(C)=O)Sc2ccc(OC)cc21`, the cell viability amounted to 1.08.
In the case of `Nc1nc(=O)c2c([nH]1)NCC(CNc1ccc(C(=O)N[C@@H](CCC(=O)O)C(=O)O)cc1)N2C=O` (stereo partly drawn) [Calcium folinate], the cell viability was 1.08.
`O=C(O)c1ccnc2ccccc12` [4-Quinolinecarboxylic acid]: the cell viability was 1.
In the case of `O=C(O)c1cc(=O)c2c(OCC(O)COc3cccc4oc(C(=O)O)cc(=O)c34)cccc2o1` [Sodium cromoglycate], the cell viability was determined as 1.03.
The result for `O=c1c(O)c(-c2ccccc2)oc2cc(O)cc(O)c12` [Galangin] reads 1.08; that for `CCOc1ccc(Cc2cc([C@@H]3O[C@H](CO)[C@@H](O)[C@H](O)[C@H]3O)ccc2Cl)cc1` [Dapagliflozin], 0.78.
As to `O=c1cc(CN2CCOCC2)occ1OCCCCCSc1ccnc2cc(C(F)(F)F)ccc12`, the cell viability was 1.03.
As to `C[C@@H]1O[C@@H](O[C@@H]2[C@H](O)[C@@H](O)[C@H](O[C@H]3CC[C@@]4(C)C(CC[C@]5(C)C4C=C[C@]46OC[C@@]7(CCC(C)(C)CC74)[C@@H](O)C[C@]65C)C3(C)C)O[C@@H]2CO[C@@H]2O[C@H](CO)[C@@H](O)[C@H](O)[C@H]2O)[C@H](O)[C@H](O)[C@H]1O` (stereo partly drawn) [Saikosaponin C], the cell viability was 1.15.
For the molecule `COc1cc(/C=C/CO)cc(OC)c1O[C@@H]1O[C@H](CO)[C@@H](O)[C@H](O)[C@H]1O` [eleutheroside-b], the cell viability came to 1.13.
With `Nc1ccn([C@@H]2O[C@H](CO)[C@@H](O)[C@H]2O)c(=O)n1` [Cytidine], the cell viability amounted to 0.915.
As for `CC(C)CCC[C@@H](C)[C@H]1CC[C@H]2[C@@H]3CC=C4C[C@@H](O)CC[C@]4(C)[C@H]3CC[C@]12C` [Cholesterol], the figure is 1.15; as for `CN(C)CCC(c1ccccc1)c1ccccn1` (stereo not drawn) [Pheniramine maleate], 1.12; as for `Cc1cccc(Nc2nc(-c3ccncc3)cs2)c1`, 0.833.
As for `Cn1cnc(N)c2ncnc1-2` [3-Methyladenine], the cell viability is 1.07.
The result for `CCN(CC)C(=O)N1CCN(C)CC1` [Diethylcarbamazine citrate] reads 1.34; that for `CCn1c(-c2nonc2N)nc2cnc(Oc3cccc(NC(=O)c4ccc(OCCN5CCOCC5)cc4)c3)cc21`, 1.19; that for `CC[C@H](CC[C@@H](C)[C@H]1CC[C@H]2[C@@H]3CC=C4C[C@@H](O[C@@H]5O[C@H](CO)[C@@H](O)[C@H](O)[C@H]5O)CC[C@]4(C)[C@H]3CC[C@]12C)C(C)C` [Sitogluside], 1.17.
The result for `CC[C@]1(O)C[C@@H]2CN(CCc3c([nH]c4ccccc34)[C@@](C(=O)OC)(c3cc4c(cc3OC)N(C)[C@H]3[C@@](O)(C(=O)OC)[C@H](OC(C)=O)[C@]5(CC)C=CCN6CC[C@]43[C@@H]65)C2)C1` [Vinblastine sulfate] reads 0.319.
Take `CCc1cc(/C(C)=N/OCc2ccc(C3CCCCC3)c(C(F)(F)F)c2)ccc1CN1CC(C(=O)O)C1` [Siponimod]: the cell viability was found to be 1.07.
For the molecule `Cc1cc(CS(=O)(=O)c2ccccc2)cc(OCc2ccc(CN3CCC[C@@H]3CO)cc2)c1`, the cell viability was 1.1.
Regarding `Cc1c(C)c2c(c(C)c1O)CC[C@@](C)(CCC[C@H](C)CCC[C@H](C)CCCC(C)C)O2` [Vitamin E], the cell viability stood at 1.1.
`CCN(CCCc1ccccc1)CCCc1ccccc1` [Alverine citrate]: the cell viability was 1.16.
For the molecule `COc1cc2c(cc1OC)CN(CCc1ccc(NC(=O)c3cccc4c(=O)c5cccc(OC)c5[nH]c34)cc1)CC2` [Elacridar], the cell viability came out at 1.03.
With `Clc1ccc(COC(Cn2ccnc2)c2ccc(Cl)cc2Cl)cc1` (stereo not drawn) [Econazole], the cell viability is 1.1.
In the case of `C[C@H](CCC(=O)NCC(=O)O)[C@H]1CC[C@H]2[C@@H]3[C@H](O)C[C@@H]4C[C@H](O)CC[C@]4(C)[C@H]3C[C@H](O)[C@]12C` [Glycocholic acid], the cell viability is 1.16.
For the molecule `CO/N=C1\CN(c2nc3c(cc2F)c(=O)c(C(=O)O)cn3C2CC2)CC1CN` (stereo not drawn) [Gemifloxacin mesylate], the cell viability was 1.
`Clc1ccccc1C(c1ccccc1)(c1ccccc1)n1ccnc1` [Clotrimazole]: the cell viability was found to be 1.17.
Regarding `NC(=O)NO` [Hydroxyurea], the cell viability was 1.13.
For `Cc1ccccc1C(=O)N1CCc2cc(-c3nc(NC(=O)Cc4ccc5c(c4)OCO5)sc3C)ccc21`, the cell viability amounted to 1.12.
Regarding `CC(C)(C)c1ccc(S(=O)(=O)NCc2ccc(C(=O)Nc3cccnc3)cc2)cc1`, the cell viability amounted to 0.948.
For `CC(C)=CCC/C(C)=C/COc1ccc2ccc(=O)oc2c1` [Auraptene], the cell viability amounted to 1.
In the case of `O=S(=O)(O)CCSSCCS(=O)(=O)O` [Dimesna], the cell viability was 0.952.
As for `CO[C@H]1C(=O)[C@]2(C)[C@@H](OC)C[C@H]3OC[C@@]3(OC(C)=O)[C@H]2[C@H](OC(=O)c2ccccc2)[C@]2(O)C[C@H](OC(=O)[C@H](O)[C@@H](NC(=O)OC(C)(C)C)c3ccccc3)C(C)=C1C2(C)C` [Cabazitaxel], the cell viability turned out to be 0.2.
